The RNAGym collection of RNA variant scans (doi:10.7554/elife.90254)
Read counts are not given, so values of variants with three or more changes are uncertain.

B1: LINE1-mini (parent)
chain: GGCAGAGCUCAACACAGCGUGGCAAAGUGGCUGUGGCUAGACUGCC

Variants of: B1
Experiment: self-cleavage, relative activity (ratio to wild type); higher = more cleavage; in vitro, sequencing; the parent is a self-cleaving ribozyme

Variant | self-cleavage
G27U U28C C45A | 1.19
A25U G33C C46G | 0.04
G27U U28C C42A U43G | 0.04
A25U G30U G33C | 0.11
A25U A26G G35C | 0.06
A26C G29U U38C G44U | 0.02
G27U G29C G40U C45U | 0.07
A26U U28G U32A G35C A39U | 0.08
G27A G33C G35A | 0.05
A26G G27C G44A | 0.15
G27A U43C C46A | 0.06
A26G G27A C42A G44C C45A | 0.04
A25U G27A G30U G44U | 0
A25U G30A C31U C46G | 0.01
A26G U28A U32G | 0.1
A25G U38A A39U G44C | 0.11
G27A G29A G35A | 0.27
A26U G29C C46A | 0.49
G27A U32A C45A | 0.1
G27C G44C C46G | 0.07
A25U C42U C46A | 0.01

Variant | self-cleavage
A26C C31G C37U A39C G44U | 0.04
A25U G33A G35C | 0.01
G27C U28A G29U C45A | 0.26
A26U G35U C46G | 0.02
A26U G33C A39C | 0.03
A25G U32A G40U | 0.09
A26G G33A U34A | 0.02
A25G U32A G33A U43A G44C | 0.03
A26G G29C C46A | 2.14
G27A G40C U43A | 0.02
A26G U32A G40A | 0.09
A26C G29A U38C C46A | 0.22
A26C G36A G44C | 0.12
A26G A41G G44A | 0.04
G27U G29C U38C | 0.45
G27A G35U C45A | 0.02
G27C U34C C46A | 0.19
G27U G29A G33C | 0.2
A26G G29U G30A U32A G33A U38C A39G | 0.02
A26U C37U C46G | 0.02
A26U U34G A39G | 0.03

Variant | self-cleavage
A26C G33C A39G | 0.04
A26U G27C G33C G36U | 0.04
G27C G33U U43G G44C | 0.02
G27U G44U C45A C46U | 0.03
A26C C42A C45U | 0.22
G27A A39G C42G C45A | 0.02
A26G G27U G29U A41C | 0.04
A26G G29U U43C | 0.18
A25U G35A C42G | 0.01
A26U G29U C42A | 0.31
A26U G36A C45U | 0.12
G27U C45A C46A | 0.03
G27U G30U G36C C42A | 0.04
A26U G35C G44U | 0.1
A26U G35C G44C | 0.02
A26G A41U C45U | 0.42
A26U G30A G33U | 0.06
G27A G44A C45G | 0.31
A26C U32C U43G | 0
A26C G40U C46A | 0.1
A26C G30C G36A | 0.07

Variant | self-cleavage
G27A U28A A41U | 0.58
A26U U38C G44U C45U | 0.05
A26U G27U G29A | 0.99
A25U U32G G35A A41C | 0.2
A26G G36U G40C | 0.03
A26G G36U G40U | 0.2
A26G C31G U34C | 0.02
A25U U34A C45G C46U | 0.04
G27A G30U A39U C46G | 0.83
G27C C31A C46U | 0
G27U C37A G40C | 0.3
G27C G33A U43A | 0.02
A26C C37U G40A | 0.1
A26U G27A U34A U43G | 0
G27C G40U C45A | 0.06
G27A U28A G30C C42G | 0.06
G27U G30C G40C | 0.09
A25U A26G U34C | 0.08
G27A G29C U34C G40C | 0.03
A26G A41C U43A | 0.03
G27C G30A A41C U43C | 0.03
